No constants are given. Whether binding was seen depends on the method and setting. Binding seen in cells or lysates may run through a third protein. Some results given as binding are weak or reduced against the parent protein; the word gives no strength. For some of these results: Tags and fused reporters may be left off the sequences shown.
Tests used:
Test in all cases: co-IP; GFP-tagged and HA-tagged proteins co-expressed in HEK293T cells, immunoprecipitated with anti-GFP antibodies, western blot; NET buffer; RNase A added
[1] = target: T1, GFP-PatL1 (full length) (human) (UniProt Q86TB9)
T1 sequence: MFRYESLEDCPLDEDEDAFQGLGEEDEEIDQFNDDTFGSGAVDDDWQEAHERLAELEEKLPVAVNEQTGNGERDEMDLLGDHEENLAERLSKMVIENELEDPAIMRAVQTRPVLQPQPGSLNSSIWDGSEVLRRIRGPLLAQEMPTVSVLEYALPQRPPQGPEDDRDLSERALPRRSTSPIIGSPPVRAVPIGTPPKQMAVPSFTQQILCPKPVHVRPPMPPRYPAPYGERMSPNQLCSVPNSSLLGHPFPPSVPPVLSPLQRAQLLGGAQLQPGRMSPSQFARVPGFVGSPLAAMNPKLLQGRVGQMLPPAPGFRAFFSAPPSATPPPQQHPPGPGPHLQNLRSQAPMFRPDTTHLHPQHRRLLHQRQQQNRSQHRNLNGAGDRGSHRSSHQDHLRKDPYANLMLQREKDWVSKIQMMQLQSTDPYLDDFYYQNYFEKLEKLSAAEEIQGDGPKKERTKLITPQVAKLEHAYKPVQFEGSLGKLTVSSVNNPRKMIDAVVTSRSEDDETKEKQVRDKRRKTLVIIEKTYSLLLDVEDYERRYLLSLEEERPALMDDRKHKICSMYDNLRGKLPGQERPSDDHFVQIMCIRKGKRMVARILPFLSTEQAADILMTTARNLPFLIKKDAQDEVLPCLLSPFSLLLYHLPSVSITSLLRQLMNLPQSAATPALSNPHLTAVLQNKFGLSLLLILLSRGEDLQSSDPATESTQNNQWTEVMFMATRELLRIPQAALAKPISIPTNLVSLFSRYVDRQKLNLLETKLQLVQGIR

Amino acid sequences for entries named in this document (tags omitted).
UniProt Q8IZH2: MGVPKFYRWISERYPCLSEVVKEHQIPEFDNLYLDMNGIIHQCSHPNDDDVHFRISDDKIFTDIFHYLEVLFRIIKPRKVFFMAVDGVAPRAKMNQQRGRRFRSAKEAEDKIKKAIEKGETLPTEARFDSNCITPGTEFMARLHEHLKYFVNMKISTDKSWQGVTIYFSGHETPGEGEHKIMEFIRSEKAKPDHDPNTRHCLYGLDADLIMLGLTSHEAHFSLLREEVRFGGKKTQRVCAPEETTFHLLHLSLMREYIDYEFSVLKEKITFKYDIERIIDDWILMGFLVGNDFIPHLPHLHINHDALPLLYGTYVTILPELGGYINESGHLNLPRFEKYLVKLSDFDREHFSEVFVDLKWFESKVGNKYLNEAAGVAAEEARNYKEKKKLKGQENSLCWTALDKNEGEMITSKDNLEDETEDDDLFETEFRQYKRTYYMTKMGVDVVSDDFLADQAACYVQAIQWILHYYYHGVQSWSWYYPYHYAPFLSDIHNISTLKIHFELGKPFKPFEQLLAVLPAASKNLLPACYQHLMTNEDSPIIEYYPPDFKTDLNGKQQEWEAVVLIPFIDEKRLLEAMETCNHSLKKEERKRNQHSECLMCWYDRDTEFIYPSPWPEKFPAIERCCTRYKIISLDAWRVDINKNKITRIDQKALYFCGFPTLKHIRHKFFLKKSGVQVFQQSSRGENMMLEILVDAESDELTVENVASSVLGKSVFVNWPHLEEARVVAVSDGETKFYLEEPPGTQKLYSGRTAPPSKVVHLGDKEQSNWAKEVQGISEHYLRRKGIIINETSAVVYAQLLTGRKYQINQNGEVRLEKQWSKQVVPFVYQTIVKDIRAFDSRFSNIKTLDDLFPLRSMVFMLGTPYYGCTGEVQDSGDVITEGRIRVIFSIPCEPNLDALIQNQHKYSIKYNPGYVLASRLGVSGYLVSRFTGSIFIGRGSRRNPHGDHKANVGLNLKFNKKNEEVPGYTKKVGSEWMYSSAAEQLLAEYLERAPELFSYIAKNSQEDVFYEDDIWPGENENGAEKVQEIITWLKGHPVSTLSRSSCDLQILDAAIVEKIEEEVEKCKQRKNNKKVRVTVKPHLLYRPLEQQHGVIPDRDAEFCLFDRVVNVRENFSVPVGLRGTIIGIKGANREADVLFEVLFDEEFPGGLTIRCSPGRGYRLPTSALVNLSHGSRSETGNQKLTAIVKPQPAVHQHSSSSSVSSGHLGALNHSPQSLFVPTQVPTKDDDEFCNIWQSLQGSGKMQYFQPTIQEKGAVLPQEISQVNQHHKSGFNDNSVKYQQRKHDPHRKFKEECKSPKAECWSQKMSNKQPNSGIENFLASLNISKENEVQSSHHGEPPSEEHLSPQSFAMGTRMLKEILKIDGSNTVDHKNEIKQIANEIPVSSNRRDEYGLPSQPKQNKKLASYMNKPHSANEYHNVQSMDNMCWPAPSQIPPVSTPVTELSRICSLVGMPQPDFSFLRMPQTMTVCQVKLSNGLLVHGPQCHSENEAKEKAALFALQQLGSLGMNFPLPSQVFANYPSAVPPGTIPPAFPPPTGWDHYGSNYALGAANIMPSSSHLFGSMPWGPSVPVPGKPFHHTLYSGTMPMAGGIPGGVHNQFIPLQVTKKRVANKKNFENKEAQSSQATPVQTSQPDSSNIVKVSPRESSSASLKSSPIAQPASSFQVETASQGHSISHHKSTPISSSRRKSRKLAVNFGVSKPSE

[2] = target: T2, PatL1 M+C fragment (residues 399-770) (human) (UniProt Q86TB9)
T2 sequence: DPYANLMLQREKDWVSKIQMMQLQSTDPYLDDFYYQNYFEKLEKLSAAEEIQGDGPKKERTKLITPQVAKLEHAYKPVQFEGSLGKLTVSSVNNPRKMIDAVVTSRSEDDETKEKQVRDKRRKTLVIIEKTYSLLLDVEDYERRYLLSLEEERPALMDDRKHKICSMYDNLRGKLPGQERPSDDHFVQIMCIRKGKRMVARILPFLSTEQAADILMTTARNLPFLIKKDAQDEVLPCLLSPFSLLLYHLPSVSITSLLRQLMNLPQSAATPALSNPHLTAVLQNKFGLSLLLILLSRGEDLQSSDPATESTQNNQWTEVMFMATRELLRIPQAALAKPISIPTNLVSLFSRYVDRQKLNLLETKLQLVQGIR

[3] = target: T3, PatL1 N+P fragment (residues 1-398) (human) (UniProt Q86TB9)
T3 sequence: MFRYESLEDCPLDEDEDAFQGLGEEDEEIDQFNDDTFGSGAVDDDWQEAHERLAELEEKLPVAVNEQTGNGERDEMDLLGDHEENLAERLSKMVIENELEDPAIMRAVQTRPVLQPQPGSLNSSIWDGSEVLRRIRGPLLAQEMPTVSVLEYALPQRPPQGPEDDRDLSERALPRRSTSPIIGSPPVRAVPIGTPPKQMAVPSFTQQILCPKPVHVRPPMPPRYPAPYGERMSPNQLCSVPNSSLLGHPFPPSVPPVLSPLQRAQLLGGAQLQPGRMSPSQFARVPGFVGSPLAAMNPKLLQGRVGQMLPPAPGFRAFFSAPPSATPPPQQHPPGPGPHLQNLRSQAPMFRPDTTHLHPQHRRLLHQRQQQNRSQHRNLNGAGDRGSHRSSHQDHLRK

[4] = target: T4, GFP-PatL1 ΔC (lacks residues 517-770) (human) (UniProt Q86TB9)
T4 sequence: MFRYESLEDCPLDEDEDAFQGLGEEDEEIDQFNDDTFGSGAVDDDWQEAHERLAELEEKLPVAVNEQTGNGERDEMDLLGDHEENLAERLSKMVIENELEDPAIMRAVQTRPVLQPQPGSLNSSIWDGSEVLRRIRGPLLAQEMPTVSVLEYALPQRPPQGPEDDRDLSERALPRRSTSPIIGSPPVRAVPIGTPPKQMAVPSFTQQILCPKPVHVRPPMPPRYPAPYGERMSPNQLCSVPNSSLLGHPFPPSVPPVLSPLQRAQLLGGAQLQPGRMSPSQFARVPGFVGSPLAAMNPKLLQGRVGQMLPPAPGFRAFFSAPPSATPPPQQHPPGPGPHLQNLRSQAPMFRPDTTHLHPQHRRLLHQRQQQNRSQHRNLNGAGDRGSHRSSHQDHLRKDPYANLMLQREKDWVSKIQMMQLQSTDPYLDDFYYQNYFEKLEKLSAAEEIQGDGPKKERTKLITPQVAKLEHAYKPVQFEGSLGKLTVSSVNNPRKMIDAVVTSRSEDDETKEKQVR

- binding [1]: binds
- binding [2]: binds
- binding [3]: no binding
- binding [4]: no binding
Substance: HA-tagged XRN1 (from UniProt Q8IZH2 1-1706) (enzyme)

From publication PMC6753473
